We go through 24 compounds from article PMC4336329 (PLoS ONE, 2015).

Screen size: about 310,000 compounds; about 14,000 (4.5%) showed an effect of 50% or more. Effects have a minus sign here. Some of the results follow.
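Further: peak tail current of the secondary pulse compared with the same well before compound.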

human ether-à-go-go-related gene (hERG) potassium channel, sequence (Q12809 whole entry, looked up): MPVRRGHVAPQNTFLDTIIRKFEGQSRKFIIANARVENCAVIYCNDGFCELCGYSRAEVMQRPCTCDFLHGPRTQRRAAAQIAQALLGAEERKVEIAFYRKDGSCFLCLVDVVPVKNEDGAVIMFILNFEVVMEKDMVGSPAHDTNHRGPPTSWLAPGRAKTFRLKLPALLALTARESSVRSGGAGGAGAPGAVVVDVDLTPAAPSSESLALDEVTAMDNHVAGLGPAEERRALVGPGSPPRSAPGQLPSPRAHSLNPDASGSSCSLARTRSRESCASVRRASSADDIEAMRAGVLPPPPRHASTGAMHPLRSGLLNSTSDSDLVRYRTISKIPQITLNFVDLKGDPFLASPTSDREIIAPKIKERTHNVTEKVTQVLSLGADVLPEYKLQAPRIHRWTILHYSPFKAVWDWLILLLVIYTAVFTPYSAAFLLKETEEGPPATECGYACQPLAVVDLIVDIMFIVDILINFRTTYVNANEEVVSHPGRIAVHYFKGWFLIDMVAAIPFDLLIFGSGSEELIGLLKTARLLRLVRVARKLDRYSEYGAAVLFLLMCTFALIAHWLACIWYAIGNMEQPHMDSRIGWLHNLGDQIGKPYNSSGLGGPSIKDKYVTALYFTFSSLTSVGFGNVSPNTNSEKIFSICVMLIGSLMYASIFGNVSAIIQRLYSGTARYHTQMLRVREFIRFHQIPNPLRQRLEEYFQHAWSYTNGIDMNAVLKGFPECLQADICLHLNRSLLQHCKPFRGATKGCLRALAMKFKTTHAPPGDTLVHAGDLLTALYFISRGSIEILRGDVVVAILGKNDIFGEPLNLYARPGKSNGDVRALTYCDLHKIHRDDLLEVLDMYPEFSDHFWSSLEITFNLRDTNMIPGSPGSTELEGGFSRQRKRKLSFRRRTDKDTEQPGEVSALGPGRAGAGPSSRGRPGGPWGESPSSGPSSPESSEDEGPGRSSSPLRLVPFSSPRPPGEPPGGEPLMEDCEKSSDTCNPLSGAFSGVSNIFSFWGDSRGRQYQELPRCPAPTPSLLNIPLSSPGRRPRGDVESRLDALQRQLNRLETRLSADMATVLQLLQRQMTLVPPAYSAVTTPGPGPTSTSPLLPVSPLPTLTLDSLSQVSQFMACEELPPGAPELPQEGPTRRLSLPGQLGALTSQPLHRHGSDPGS

The assay addresses human ether-à-go-go-related gene (hERG) potassium channel (human, UniProt Q12809). As to the kind of experiment: primary screen, population patch clamp on CHO cells stably expressing hERG.
In the case of `Cc1cc(C)nc(-n2nc(C)cc2NC(=O)CNC2CCCCC2)n1`, the “hERG current change (%, negative = inhibition) at 10uM” value is -52.4%.

In the case of `CCCN(CC1CCCO1)C(=O)c1cc(COc2cccc(OC)c2)on1` (stereo not drawn), the “hERG current change (%, negative = inhibition) at 10uM” value is reported as -4.79%.

In the case of `Cc1nc(NC(=O)CSc2nnc(N)s2)c(Cl)cc1Cl`, the “hERG current change (%, negative = inhibition) at 10uM” value was 25.3%.

On to `CCCn1cc(SCC(=O)Nc2cc(C)on2)c2ccccc21`, for which the “hERG current change (%, negative = inhibition) at 10uM” value is -6.19%.

As to `Cn1c(=O)c2[nH]c(-c3cccnc3)nc2n(C)c1=O`, the “hERG current change (%, negative = inhibition) at 10uM” value worked out at 2.19%.

As to `CN1/C(=C/C2CC(=O)N(c3cccc4ccccc34)C2=O)C(C)(C)c2ccccc21` (stereo not drawn), the “hERG current change (%, negative = inhibition) at 10uM” value is 0.919%.

In the case of `COc1cc(C(=O)OCC(=O)Nc2c(F)c(F)c(F)c(F)c2F)cc(OC)c1OC`, the “hERG current change (%, negative = inhibition) at 10uM” value is recorded as 0.103%.

For the compound `Cc1ccc(C(=O)O)cc1S(=O)(=O)N1CCOCC1`, the “hERG current change (%, negative = inhibition) at 10uM” value was 12.3%.

With `O=C(CN(c1cccc(Cl)c1)S(=O)(=O)c1ccc(Cl)cc1)N1CCc2ccccc2C1`, the “hERG current change (%, negative = inhibition) at 10uM” value is reported as -21.5%.

For the compound `CC(=O)Nc1ccc(NC(=O)CN(c2ccc([N+](=O)[O-])cc2)S(=O)(=O)c2ccccc2)cc1`, the “hERG current change (%, negative = inhibition) at 10uM” value is recorded as -22.3%.

Turning to `O=C(NCc1ccc(Cl)c(Cl)c1)c1ccc2c(c1)OCO2`, the “hERG current change (%, negative = inhibition) at 10uM” value is given as -10.7%.

Turning to `Cc1noc(NS(=O)(=O)c2ccc(NC(=O)C(F)(F)C(F)(F)C(F)(F)F)cc2)c1C`, the “hERG current change (%, negative = inhibition) at 10uM” value turned out to be 20.3%.

On to `COc1ccc(CN2CCN(c3ccccc3F)CC2)c(OC)c1`, for which the “hERG current change (%, negative = inhibition) at 10uM” value is reported as -75.1%.

As to `NC(=O)c1c(NC(=O)CCCn2cnc([N+](=O)[O-])n2)sc2c1CCCC2`, the “hERG current change (%, negative = inhibition) at 10uM” value was -12%.

For the compound `O=C(CN1CCOc2ccccc21)N1CCN(c2cccc(Cl)c2)CC1`, the “hERG current change (%, negative = inhibition) at 10uM” value is recorded as -21.9%.

In the case of `O=C(Nc1cn(-c2ccccc2)nc1-c1ccc(Cl)cc1)c1ccccc1`, the “hERG current change (%, negative = inhibition) at 10uM” value was found to be 13.8%.

`COc1ccc(S(=O)(=O)N(C)C)cc1NC(=O)COC(=O)Cn1cnc2ccccc2c1=O`: the “hERG current change (%, negative = inhibition) at 10uM” value is reported as -8.25%.

As to `Cc1ccc(N2C(=O)C3C4C=CC(CNC(=S)Nc5cccc(Cl)c5)(O4)C3C2=O)cc1` (stereo not drawn), the “hERG current change (%, negative = inhibition) at 10uM” value is -15.7%.

On to `CCC(O)(CCN1CCCCC1)c1ccccc1` (stereo not drawn), for which the “hERG current change (%, negative = inhibition) at 10uM” value is listed as -5.84%.

As for `CCC(Cc1ccccc1)NC(=O)CCn1cccc1` (stereo not drawn), the “hERG current change (%, negative = inhibition) at 10uM” value stood at 5.74%.

Turning to `O=C(CC1C(=O)NCCN1CC1CCCCC1)NC1(c2ccccc2)CC1` (stereo not drawn), the “hERG current change (%, negative = inhibition) at 10uM” value was determined as 13.8%.

As to `O=C(COC(=O)c1ccccc1O)Nc1ccc(N2CCOCC2)cc1`, the “hERG current change (%, negative = inhibition) at 10uM” value is 4.73%.

For the compound `O=C(Nc1ccc(N2CCOCC2)cc1)c1ccc(Cl)c(S(=O)(=O)N2CCCC2)c1`, the “hERG current change (%, negative = inhibition) at 10uM” value stood at 11.2%.

Take `Cc1cccc(/C(N)=N/OC(=O)CCCc2ccccc2)c1`: the “hERG current change (%, negative = inhibition) at 10uM” value is listed as -2.21%.
